Measurements from ChEMBL document CHEMBL5303300, “EUbOPEN Chemogenomics Library - Multiplex” (2023).
Some entries of the source have several records that differ or are many. They are shown here; other results are not. There may be further records. The values listed for one entry repeat one measurement (runs, samples, wells, individuals or studies).

Test system: U2OS
Experiment: Multiplex assay against U2OS
Assay type: toxicity, cell-based
Conditions: human, number of replicates 2
How it was run: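 Per cents of healthy-nucleus cells form the tubulin, mitochondrial-mass and membrane-permeability phenotype values. Live cells were stained at seeding with Hoechst33342, BioTracker Green Microtubule Cytoskeleton Dye, MitoTracker Red and Annexin V Alexa Fluor 680. After compound addition they were imaged on a CQ1 microscope at 37°C and 5% CO2, and CellPathfinder machine-learning gating split them into Hoechst high-intensity objects or normal cells, normal cells into healthy, pyknosed or fragmented nuclei, and pyknosed cells into mitotic or apoptotic.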

[1] = 12 h, 1 µM, compound concentration 1 uM
[2] = 12 h, 10 µM, compound concentration 10 uM
[3] = 24 h, 1 µM, compound concentration 1 uM
[4] = 24 h, 10 µM, compound concentration 10 uM
[5] = 48 h, 1 µM, compound concentration 1 uM
[6] = 48 h, 10 µM, compound concentration 10 uM

Row | Structure (SMILES) | Population Apoptotic (%) [1] | Population Membrane Permeable-Phenotype (%) [1] | Population Mitotic Cells (%) [1] | Total Cell Count [1] | Total Cell Count [2] | Total Cell Count [3] | Population Mitochondria Different-Phenotype (%) [4] | Total Cell Count [4] | Population Fragmented Nuclei (%) [5] | Total Cell Count [5] | Total Cell Count [6] | Population Mitotic Cells (%) [5] | Population Fragmented Nuclei (%) [1] | Population Fragmented Nuclei (%) [2] | Population Membrane Permeable-Phenotype (%) [3] | Population Mitochondria Different-Phenotype (%) [2] | Population Fragmented Nuclei (%) [4] | Population Fragmented Nuclei (%) [6] | Population Mitochondria Different-Phenotype (%) [6] | Population Mitotic Cells (%) [3]
1 | C=CC(=O)Nc1ccc2[nH]c(=O)n(C3CCN(Cc4ccc(-c5ccc6c(c5)NC(=O)CO6)cc4)CC3)c2c1 [RL2578] | 20% and 79% | 12% and 1% | 80% and 20% | 36 and 210 | 38 and 313 | 45 and 284 | 7% and 37% | 52 and 342 | 15% and 2% | 73 and 576 | 52 and 444 |  |  |  |  |  |  |  |  | 
2 | CS(=O)(=O)c1ccc(C(=O)Nc2cccc(COc3ccc(Br)cc3CN3CC[C@@H](O)C3)c2)c(Cl)c1.O=CO |  |  |  | 31 and 148 | 43 and 226 | 32 and 201 |  | 47 and 251 |  | 54 and 356 | 51 and 335 | 40% and 12% |  |  |  |  |  |  |  | 
3 | COc1cccc(Cn2cc(C(=O)Nc3ccc(C)c(S(=O)(=O)N4CCOCC4)c3)c(-c3ccc(C)cc3)n2)c1 |  |  |  | 28 and 125 | 37 and 200 | 29 and 160 | 5% and 24% | 39 and 233 | 24% and 4% | 41 and 305 | 289 and 37 |  | 32% and 9% | 16% and 3% | 21% and 6% |  |  |  |  | 
4 | CS(=O)(=O)c1ccc(C(=O)Nc2cccc(COc3ccc(Br)cc3CN3CCC[C@H](O)C3)c2)c(Cl)c1.O=CO |  |  |  | 19 and 185 | 39 and 203 | 31 and 237 |  | 41 and 229 |  | 47 and 430 | 46 and 305 |  |  |  |  |  |  |  |  | 
5 | CCNc1ccc(-c2nn(-c3ccccc3C)c3c2C(C)Cc2nc(NC(=O)OC)sc2-3)cn1.O=C(O)C(F)(F)F (stereo unspecified) |  |  |  |  | 28 and 229 |  |  | 37 and 203 |  |  | 30 and 182 |  |  |  |  | 0% and 46% | 51% and 14% | 56% and 9% | 0% and 68% | 
6 | COc1ncc(-c2cc(-c3ncc(CN4C[C@@H](C)O[C@@H](C)C4)o3)c3cn[nH]c3c2)cc1NS(C)(=O)=O |  |  |  | 273 and 43 | 57 and 201 | 337 and 53 |  | 53 and 234 |  | 562 and 66 | 68 and 267 |  |  | 21% and 4% |  |  | 24% and 7% | 19% and 6% |  | 
7 | CCn1c(-c2nonc2N)nc2cncc(C(=O)N3CC[C@H](N)C3)c21.Cl |  |  | 50% and 10% | 30 and 221 | 49 and 187 | 35 and 280 |  | 58 and 244 | 18% and 3% | 53 and 573 | 78 and 354 |  |  | 22% and 4% |  |  |  |  |  | 20% and 3%
